The results in this text go back to the RNAGym collection of RNA variant scans (doi:10.7554/elife.90254).

The source gives no read counts; variants with many changes may rest on few reads.

To fix the notation:
B1: LINE1-mini (parent)
chain: GGCAGAGCUCAACACAGCGUGGCAAAGUGGCUGUGGCUAGACUGCC

Variants of B1 are the subject of the data set. Nature of the data set: self-cleavage, relative activity (ratio to wild type); higher = more cleavage; in vitro, sequencing; the parent is a self-cleaving ribozyme.
For GGCAGAGAUCAGCACAGCGUGGCAAAGUGGCUGUGGCUAUACUGCC [C8A A12G G40U], the self-cleavage stood at 0.06.
As to GGCAGAGAUCAACACCGCGUGGCAAAGUGGCUGUAACCAGACUGCC [C8A A16C G35A G36A U38C], the self-cleavage came to 0.09.
As to GGCAGAGAUCAACGCAGCGUGGCUAAGUGGCUGUGGCUAAACUGCC [C8A A14G A24U G40A], the self-cleavage turned out to be 0.06.
In the case of GGCAGAGAUCAACACUGCGUGGCAAAGUGGUUGUGGCUGGACUGCC [C8A A16U C31U A39G] it was 0.16.
In the case of GGCAGAGAUCAACUCAGCGUGGCAACCUGGCUGAGGCUAGACUGCC [C8A A14U A26C G27C U34A], the self-cleavage stood at 0.12.
In the case of GGCAGAGAUCGACACAGCGUGGCACAGGGUUUGUGGCUAGACUGCC [C8A A11G A25C U28G G30U C31U] it was 0.02; in that of GGCAGAGAUCAUCACGGCGUGGCAGAGUGGCUGUGGCUCGACUGCC [C8A A12U A16G A25G A39C], 0.08; in that of GGCAGAGAUCAGCACAGCGUGGCAAACUGGCUGUGGCUACACUGCC [C8A A12G G27C G40C], 0.02.
As to GGCAGAGAUCCACACAACGUGGCAAACUGGCUGUGGCUAGACCGCC [C8A A11C G17A G27C U43C], the self-cleavage was 0.01.
Turning to GGCAGAGAUCAGCACAGUGAGGCAAAGUGGCUGUGGCUAGACUGCC [C8A A12G C18U U20A], the self-cleavage is 0.05.
For the variant GGCAGAGAUCAACGCAGCGUGGCAAAGCGGGUUUGGCUAGACUGCC [C8A A14G U28C C31G G33U], the self-cleavage came out at 0.05.
On to GGCAGAGAUCAACACUGCGUGGCAAAGUGUCUGUGGCUAGAUUGCC [C8A A16U G30U C42U], for which the self-cleavage was 0.25.
For the variant GGCAGAGAUCACCACAGCGAGGCAAAGUGGCUGUGGCUAGACCGCC [C8A A12C U20A U43C], the self-cleavage was 0.01.
Take GGCAGAGAUCAACUCAGCGUGGCAAAGUGGCUGUGACUAGACUGAC [C8A A14U G36A C45A]: the self-cleavage was 0.28.
As for GGCAGAGAUCAGCACAGCCUGGCAAAGUGGCUGUGGCUAGACUGCC [C8A A12G G19C], the self-cleavage worked out at 0.05.
GGCAGAUCUCAACACAGCGUGGCAAAGUGGCUGUGGCGAGAGUGCC [G7U U38G C42G]: the self-cleavage was 0.01.
With GGCAGAGAUCAACCCAGCUUGGCAAAGUUGGUGUGGCUAGACUGCC [C8A A14C G19U G29U C31G] the figure was 0.05; with GGCAGAGAUCAGCACAGCGUGUCAAAGUGGCUGUAGCUAGACUGCC [C8A A12G G22U G35A], 0.08; with GGCAGAGAUCGAUACAGCGUGGCAAAGUGUCUGUGGCUAGACUGCC [C8A A11G C13U G30U], 0.01.
In the case of GGCAGAGAUCACCACAGCGUGGCAAAGUAGCUGUGGCUACACUGCC [C8A A12C G29A G40C] it was 0.02.
As to GGCAGAGAUCAACACCGCCUGGCAAACUGGCUGUGGCUAGACUGCC [C8A A16C G19C G27C], the self-cleavage is 0.05.
Regarding GGCAGAGAUCCACACAGCGUGGCAAAUUGGCUGUGGAGAGACUGCC [C8A A11C G27U C37A U38G], the self-cleavage was determined as 0.
In the case of GGCAGAGAUCCACACAGCGUGGCAAAGUGACUGUGGCUAGACUGCC [C8A A11C G30A], the self-cleavage is 0.03.
With GGCAGAGAUCUGCAAAGCGUGGCACAUUGGCUGUGUCUAGACUGCC [C8A A11U A12G C15A A25C G27U G36U] the figure was 0; with GGCAGAGAUCACCUCAACGUGGCAAAGUGGCUGUGGCUACACUGUC [C8A A12C A14U G17A G40C C45U], 0.02; with GGCAGAGAUCAGCACAGCGUGGCAAAUUGGCUGUGGCUAGACUGCC [C8A A12G G27U], 0.03.
In the case of GGCAGAGAUCAACACUGCGCGGCAAACUGGCAGUGGCUAGACUGCC [C8A A16U U20C G27C U32A] it was 0.09.
In the case of GGCAGAGAUCAACGCAGCGUGGCCAAGUGGCUGGGGCUAGACUGCC [C8A A14G A24C U34G] it was 0.04.
With GGCAGAGAUCAACACUGAGUGGCAAAGUGGCUGGGGCUAGACUCCC [C8A A16U C18A U34G G44C], the self-cleavage worked out at 0.08.
For the variant GGCAGAGAUCCACACAGCGUGGCAAAGUGGCUAUGGCUAGACUGCC [C8A A11C G33A], the self-cleavage turned out to be 0.02.
Consider GGCAGAGAUCACCACAGCGUGGCAAAGUGUAUGUGGCUAGACUACC [C8A A12C G30U C31A G44A], for which the self-cleavage was 0.03.
With GGCAGAGAUCAACACGGCGUGGCAAAGUGACUGUGGCUAGACUGCC [C8A A16G G30A], the self-cleavage came out at 0.08.
In the case of GGCAGAGAUCACCACAGCGUGGCAAAGUGGCUGUAGCUAGACUGCC [C8A A12C G35A] it was 0.1.
For GGCAGAGAUCAACACUGCGUGGAAAAGUGGCUGUGGCUAGUCUGCC [C8A A16U C23A A41U], the self-cleavage was 0.35.
Turning to GGCAGAGAUCUACACAGCGUGAAAAAGUGGCUGUGGCUAGCCUGCC [C8A A11U G22A C23A A41C], the self-cleavage is 0.02.
As to GGCAGAGAUCAACUCAGCGUGGAACAGUGGCUGUGGCUAGACUGCC [C8A A14U C23A A25C], the self-cleavage is 0.1.
On to GGCAGAGAUCACCACACCGGGGCAAAGUGGCUGUGGCUAGACUGCC [C8A A12C G17C U20G], for which the self-cleavage turned out to be 0.03.
In the case of GGCAGAGAUCAACACUGCGUGCCAAAGUGGCUGUGGUUAGACUGCC [C8A A16U G22C C37U] it was 0.11; in that of GGCAGAGAUCCACACAGCGUGGAAAAAUGGCUGUGGCUAAACUGCC [C8A A11C C23A G27A G40A], 0.
For the variant GGCAGAGAUCAGCACAGCGUGGCAAAGUGGCUGUGGCUAGACUGUC [C8A A12G C45U], the self-cleavage was found to be 0.04.
Consider GGCAGAGAUCGACACAGCGUGGCAAAGUGGCCGUGGCUACACUGCC [C8A A11G U32C G40C], for which the self-cleavage worked out at 0.
With GGCAGAGAUCGACACAGCGGGGCAAAGUGGCUGUGGCUAUACUGCC [C8A A11G U20G G40U], the self-cleavage was determined as 0.
In the case of GGCAGAGAUCCACACAGCGUGGCAAAGUGGCCGUGGCUAGACUGCG [C8A A11C U32C C46G], the self-cleavage was 0.
Consider GGCAGAGAUCAACGCAGCGUGGCAUAGUGGCUGUGGCUAGACUGCC [C8A A14G A25U], for which the self-cleavage is 0.07.
Turning to GGCAGAGAUCGACACUGCGUGGCAAAGUGGCUGUGGCUAGACUGCC [C8A A11G A16U], the self-cleavage was determined as 0.03.
Consider GGCAGAGAUCGACACAGCGUGGCAAAGUGGCUGUGGCUAGAAUGCC [C8A A11G C42A], for which the self-cleavage was 0.01.
Consider GGCAGAGAUCUACACAGCGUGGCAAUGUGCCUGUGGCUAGACUGCC [C8A A11U A26U G30C], for which the self-cleavage was 0.01.
Turning to GGCAGAGAUCAACACUGCGGGGCAAAGGGUCUGUGGAAAGACUGCC [C8A A16U U20G U28G G30U C37A U38A], the self-cleavage is 0.17.
Regarding GGCAGAGAUCAUCACCGCGUGGCAAAGUGGCUGUGGCUAGACUGCC [C8A A12U A16C], the self-cleavage worked out at 0.11.
GGCAGAGAUCAACACUGCGUGGCAAACUGGCUGUGGCUAGACUGCC [C8A A16U G27C]: the self-cleavage stood at 0.74.
On to GGCAGAGAUCAACCCAGCGUGGCAAAGUGGUUGUGGCUAGACUGCC [C8A A14C C31U], for which the self-cleavage came to 0.05.
With GGCAGAGAUCCACACGGAGUGGCAAAGUGGCUGUGGCUAGACUGCC [C8A A11C A16G C18A], the self-cleavage was 0.04.
Consider GGCAGAGAUCAACACCGCGCCGCAGAGUGGCUGUGCCUCGACUGCC [C8A A16C U20C G21C A25G G36C A39C], for which the self-cleavage is 0.04.
For GGCAGAGAUCAACUCAGCGUGGCAAAGUGGCUAUGGCUGAACUGGC [C8A A14U G33A A39G G40A C45G], the self-cleavage worked out at 0.1.
As to GGCAGAGAUCAACCCAGCGUGGCAAUUUGGCUGUGGCUAGACUUCC [C8A A14C A26U G27U G44U], the self-cleavage came out at 0.12.
In the case of GGCAGAGAUCAACACUGCGUGGCAAAGUGGCUGUGACUAGACUGCC [C8A A16U G36A] it was 0.04.
